The list shows a part of the results.
These sequences were tested on PfHDP1 homeodomain (GST-tagged) (assay: gcPBM binding intensity (ln(normalized median fluorescence intensity)); higher = stronger DNA binding).
Summary of the method: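 Probes on an Agilent 4 × 180k array were primer-extended, double-stranded and 36 bp long, taken from intergenic genomic regions, with negative controls added. GST-tagged P. falciparum DNA-binding domains from E. coli, about 25 μg on average, were applied to the array for 1 h in 1× PBS containing 1% milk, 0.2 mg/ml BSA, 0.5% salmon testes DNA and 0.03% Triton X-100. Binding intensity, obtained after Alexa488 anti-GST antibody detection and a 488 nm scan, is the highest Masliner-normalised natural-log median intensity across replicate spots of either probe orientation.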
“TTTTCAATATATATATGCTGAATTTATAATTTGTAT [CACACA_negctrl_site1774]” was tested, and the “gcPBM binding intensity (ln)” value was 6.08. For “ATATTGATTTGTGGCACACATATAATATATTCCTAT [CACACA_site3046]”, the “gcPBM binding intensity (ln)” value was 6.16. “TTATTTTGATCTGGTTGTACATATAATATATAGTGG [XGTACX_site357]” was tested, and the “gcPBM binding intensity (ln)” value was 7.31. With “TCTTGTTCGCCCTATTGTACAAACATATATTGTGAT [XGTACX_site2884]” the “gcPBM binding intensity (ln)” value was 7.27. With “ATACATTCAAAATATACACACATATATCTATAATAT [CACACA_site6576]” the “gcPBM binding intensity (ln)” value was 6.7. For “TTTCTTTAGTAGAATGTAAAAAATATAATCTTCTTA [TGCATGCA_negctrl_site298]”, the “gcPBM binding intensity (ln)” value was 5.5. “TATTTTGAAATGGAAAGGATATAGAACTTAAACAAA [CACACA_negctrl_site1530]” was tested, and the “gcPBM binding intensity (ln)” value was 6.49. “AACATACGACAATACGCACACATATAAGTACATATT [CACACA_site8584]” was tested, and the “gcPBM binding intensity (ln)” value was 7.45. For “TTTATAAAAAGCATAACACACACATGTCAATATATA [CACACA_site8286]”, the “gcPBM binding intensity (ln)” value was 6.67. For “TTCATAAAAAATGTAGTGCATTGAATAAAATTACAT [GTGCAC_site9393]”, the “gcPBM binding intensity (ln)” value was 8. In the case of “TTTTATATCTACCTTTGTACATATTTATTTTTTTTA [XGTACX_site7872]”, the “gcPBM binding intensity (ln)” value was 6.89. For “ATATTGAAATTAAAAAAATATATGAACAAATGATGA [CACACA_negctrl_site602]”, the “gcPBM binding intensity (ln)” value was 6.48. For “TTAATTTTGGTAAATGCATGTAATTAAAAATAAAAA [TGCATGCA_site234]”, the “gcPBM binding intensity (ln)” value was 6.61. With “TAAATTTTTTTTTTTTGTACACAAAAATATAATATT [XGTACX_site8151]” the “gcPBM binding intensity (ln)” value was 6. For “TTATGTAGTATAATGAGTACTAAATATAGATATGTT [XGTACX_site6335]”, the “gcPBM binding intensity (ln)” value was 6.56. With “AATTACTTAAATTATTGTACCCTAATGTTAATTTCA [XGTACX_site825]” the “gcPBM binding intensity (ln)” value was 6.44. In the case of “AATATTATAAATGATACACACTTAAAATACAGACAC [CACACA_site8868]”, the “gcPBM binding intensity (ln)” value was 6.77. With “TATAAATATGTGTATACACACCTGATAAAGGTATAT [CACACA_site7283]” the “gcPBM binding intensity (ln)” value was 7.41. For “ATATATATATATATATGTACATATACACATGTGTGC [XGTACX_site168]”, the “gcPBM binding intensity (ln)” value was 9.56. In the case of “AAATAAATAATAAATAAATAAATAAAATACCAAATA [GTGCAC_negctrl_site620]”, the “gcPBM binding intensity (ln)” value was 6.48. With “AAAATTATTAAATATGTACACACGTACATTTTATAA [CACACA_site8750]” the “gcPBM binding intensity (ln)” value was 6.1. In the case of “TTCAATTATATTCTTTGTACGAATCTTCTATAAATT [XGTACX_site4346]”, the “gcPBM binding intensity (ln)” value was 6.61. In the case of “GCTTATGCTCAATATTGTACTTTTTTTATTTATTCA [XGTACX_site8863]”, the “gcPBM binding intensity (ln)” value was 10.6. With “TACTTCTTTTTTATTTATTTTACTTTTTATTCTGTA [CACACA_negctrl_site772]” the “gcPBM binding intensity (ln)” value was 6.61. “ATTTAATTTTTTTTTAAACACACATTTTTTTATTTA [CACACA_site8880]” was tested, and the “gcPBM binding intensity (ln)” value was 6.43. For “TGGCTTATTCAGAAATGTACACATATAAATATATAT [XGTACX_site3765]”, the “gcPBM binding intensity (ln)” value was 6.29. In the case of “TGAATAAATAAGATACGTACACACATATACAAAATA [XGTACX_site7758]”, the “gcPBM binding intensity (ln)” value was 6.79. With “AAAATAATATATGTATGTACACAATTATTTATAAGT [XGTACX_site7267]” the “gcPBM binding intensity (ln)” value was 6.46. With “TTTCTTTTAATTATCCGTACACAAACAATAAAATAA [XGTACX_site7841]” the “gcPBM binding intensity (ln)” value was 6.7. In the case of “TACATAAACATTTATACACACATTATATATACATAT [CACACA_site8028]”, the “gcPBM binding intensity (ln)” value was 6.89. For “TGTGCTCGCTATTACACACTCATTGGGATAAAATTG [CACACA_site2029]”, the “gcPBM binding intensity (ln)” value was 7.48. “TACAGACATAGACACACACACACGCATAAAAAAAAA [CACACA_site6820]” was tested, and the “gcPBM binding intensity (ln)” value was 6.83. With “TTATAAATTCAATGTACTACACAAAATGAATTTAAT [XGTACX_site6683]” the “gcPBM binding intensity (ln)” value was 6.23. With “ATATAAGTACGGCATGCATGCACATTTTTTTATTCC [TGCATGCA_site101]” the “gcPBM binding intensity (ln)” value was 7.81. In the case of “TTCCTATAAAAAAACACACACATATAAATATAAATA [CACACA_site7154]”, the “gcPBM binding intensity (ln)” value was 6.83. With “AAAAAAAAAAAAAACACACACACACGCAAATACATA [CACACA_site6474]” the “gcPBM binding intensity (ln)” value was 6.86. For “TCCTTAAATATAAAGGTGCTATGCAGACCTTATGTT [GTGCAC_site9472]”, the “gcPBM binding intensity (ln)” value was 5.98. “GTCATCATAATCTATTGTACAAAAATTTATACAGAT [XGTACX_site1059]” was tested, and the “gcPBM binding intensity (ln)” value was 6.74. With “ATAAATACATTAAAATGTACATAAAAATATTACTGG [XGTACX_site1484]” the “gcPBM binding intensity (ln)” value was 6.47. For “TATAAAAATAAGTATACACACAAAATGCGTAACTTT [CACACA_site1295]”, the “gcPBM binding intensity (ln)” value was 6.15. In the case of “TACATTAAACGAATAGTGCAAGAAGTATTCGTATAA [GTGCAC_site9939]”, the “gcPBM binding intensity (ln)” value was 7.39. “TAATACTTAAAATGTTGTACATAATAATTTTATATT [XGTACX_site5403]” was tested, and the “gcPBM binding intensity (ln)” value was 6.09. “CATATGCGTCTTGCCTTGCACACTTTTATGAAAAAA [CACACA_site2055]” was tested, and the “gcPBM binding intensity (ln)” value was 8.57. “TATAACAAGTAATGGTGTACATTATATTATGTAATA [XGTACX_site2761]” was tested, and the “gcPBM binding intensity (ln)” value was 6.35.

Reference: the supplement of paper PMC11417369
